In all, about 45,000 compounds went through this assay and about 65 (0.1%) were called active. Calls come from the whole dose curve; as a rule, active = well fitted activation curve with a large enough effect; inconclusive = small, poorly fitted or top-dose-only effect; inactive = no such curve, though single readings can be large or run the other way. This is one part of the list.
molecular target: Galactocerebrosidase (Homo sapiens) (UniProt P54803); assay: A Novel Cell-Based Assay to Identify Small Molecules for B -Galactocerebrosidase; conditions: 145M-Twi-hGALC-G270D cells (Twitcher mouse brain line with human GALC G270D), HMU-beta-Gal fluorescence, 48 h; series mostly up to 57.5 µM; activation: at the top concentration; note: 0% is about no effect; nearly all actives have a fitted effect of over 65% in size
How it was run: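 Fluorogenic HMU-b-Gal hydrolysis (0.1 mM final, pH 5.2 citrate-phosphate with 1 mg/mL sodium taurocholate; carbonate stop buffer) measures mutant GALC activity after compound treatment of live 145M-Twi Twitcher brain cells stably carrying human GALC-G270D, with wild-type GALC line alongside; activation sought.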

Sequence of UniProt P54803 (P54803 whole entry, looked up): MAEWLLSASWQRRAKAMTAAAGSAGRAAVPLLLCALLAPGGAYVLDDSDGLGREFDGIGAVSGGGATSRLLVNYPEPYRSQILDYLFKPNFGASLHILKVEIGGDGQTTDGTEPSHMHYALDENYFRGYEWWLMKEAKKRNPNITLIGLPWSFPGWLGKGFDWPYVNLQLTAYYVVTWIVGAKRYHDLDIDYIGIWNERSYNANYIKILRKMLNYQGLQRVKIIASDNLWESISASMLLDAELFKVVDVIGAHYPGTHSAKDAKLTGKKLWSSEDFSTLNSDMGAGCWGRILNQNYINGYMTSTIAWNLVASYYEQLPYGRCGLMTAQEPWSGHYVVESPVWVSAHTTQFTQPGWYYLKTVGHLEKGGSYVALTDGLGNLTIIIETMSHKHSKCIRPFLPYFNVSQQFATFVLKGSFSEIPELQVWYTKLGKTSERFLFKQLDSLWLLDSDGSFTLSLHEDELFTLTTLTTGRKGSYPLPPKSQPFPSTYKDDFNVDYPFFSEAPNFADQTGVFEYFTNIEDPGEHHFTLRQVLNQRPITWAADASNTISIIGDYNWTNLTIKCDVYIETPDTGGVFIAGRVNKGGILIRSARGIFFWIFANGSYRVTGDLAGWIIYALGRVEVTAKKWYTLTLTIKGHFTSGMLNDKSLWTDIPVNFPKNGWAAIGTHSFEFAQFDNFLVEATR

| Structure (SMILES) | activation |
| --- | --- |
| Cc1cccc(NC(=O)c2sc3nc4c(cc3c2N)CCCCCC4)c1C | inactive: 1.78% |
| COC(=O)c1c(NC(=O)Cc2coc3ccc(C)cc23)sc2c1CCC2 | inactive: -11.3% |
| Cc1ccc(C(=O)c2ccc(CC(=O)O)n2C)cc1 | inactive: -15.5% |
| C/C(=N\O)c1ccc(OCC(=O)N2CCCCC2)cc1 | inactive: -7.8% |
| COc1ccc(-n2nc(C(=O)Nc3ccc(Cl)cn3)c3c4ccccc4n(C)c3c2=O)cc1Cl | inactive: -21.7% |
| COc1ccc(CCN2C(=O)c3[nH]nc(-c4ccccc4O)c3C2c2cccc(OC)c2)cc1 (configuration not stated) | inactive: -16.9% |
| Cc1ccccc1NC(=O)Cn1c(=O)n(CCc2ccccc2)c(=O)c2sc3ccccc3c21 | inactive: -2.46% |
| Cc1[nH]c2ccccc2c1C(c1ccccc1)c1cccs1 (configuration not stated) | inactive: 4.87% |
| CCOC(=O)c1ccc(NC(=O)CC2C(=O)N(c3ccc(C)cc3)C(=O)N2C2CCCCC2)cc1 (configuration not stated) | inactive: -13.9% |
| Cc1cc(C(F)(F)F)nn1-c1nc(-c2ccccc2)cc(C(F)(F)F)n1 | inactive: -23.1% |
| CCCCN(CCCC)CCCOC(=O)c1ccc(N)cc1 | inactive: -4.74% |
| Cc1cc(=O)n(CC(=O)Nc2ccc([N+](=O)[O-])cc2)c(-n2nc(C)cc2C)n1 | inactive: -19.4% |
| CCOC(=O)c1ccccc1NS(=O)(=O)c1ccc(N2CCCCS2(=O)=O)cc1 | inactive: -14% |
| COc1cc(NC(=O)c2nn(-c3ccc(C)cc3)c(=O)c3c2c2ccccc2n3C)cc(OC)c1OC | inactive: -20.9% |
| CCc1nn(CC(=O)NC(C)CC)c(=O)c2cc3c(OC)cccc3n12 (configuration not stated) | inactive: 1.86% |
| CC(C)S(=O)(=O)c1oc(-c2ccc(F)cc2)nc1S(=O)(=O)c1ccccc1 | inactive: -32.4% |
| FC(F)(F)C(Cl)Br (configuration not stated) | inactive: -10.2% |
| CN1CCN(c2oc(/C=C/c3ccc(F)cc3)nc2C#N)CC1 | inactive: 4.35% |
| Cc1cccc(-n2c(SCc3nc(-c4ccccc4C)no3)nnc2-c2ccccc2)c1 | inactive: -8.14% |
| O=C(O)CN1C(=O)c2cccc3cccc(c23)C1=O | inactive: -16.6% |
| COc1cccc(N2CCN(C(=O)c3cc4c(=O)n(Cc5ccccc5)ccc4nc3C)CC2)c1 | inactive: 2.73% |
| Cc1cccn2c(=O)c(C(=O)NCc3ccccc3Cl)c(O)nc12 | inactive: -10.5% |
| CC[N+](C)(CC)CCOC(=O)C1c2ccccc2Oc2ccccc21 | inactive: -9.86% |
| COc1ccc(-c2noc(-c3ccc(N4CCN(c5ccc(OC)cc5)CC4)c([N+](=O)[O-])c3)n2)cc1 | inactive: -3.4% |
| CCOc1ccc(-n2nc(CO)c(C(=O)NCc3cccnc3)n2)cc1 | inactive: -8.81% |

| Structure (SMILES) | activation |
| --- | --- |
| Cc1ccsc1CN(Cc1ccco1)C(=O)c1ccc(Cl)cc1 | inactive: -1.46% |
| CCOC(=O)c1cc(-c2ccc(OC)cc2)n(CCC(=O)NCc2ccccc2OC)c1C | inactive: -11.2% |
| Cc1ccc(C)c(N2CCN(S(=O)(=O)c3ccc(-c4cc(C(F)(F)F)on4)s3)CC2)c1 | inactive: -19.9% |
| O=C(NCCc1ccc(Cl)cc1)C(=O)NCC(c1ccc2c(c1)OCO2)N1CCOCC1 (configuration not stated) | inactive: -4.75% |
| CC(C)c1c(C(=O)Nc2ccccc2)c(-c2ccccc2)c(-c2ccc(F)cc2)n1CC[C@@H](O)C[C@@H](O)CC(=O)O | inactive: -13.4% |
| Cc1c(Cl)cccc1NC(=O)C1CCCN(C(=O)c2cnn(-c3ccccc3)c2-n2cccc2)C1 (configuration not stated) | inactive: -8.41% |
| O=C(CN1C(=O)COc2ccc(S(=O)(=O)N3CCOCC3)cc21)Nc1ccc(F)c(Cl)c1 | inactive: 3.41% |
| O=C(Nc1nc2ccc(F)cc2s1)c1nc(SCc2ccccc2F)ncc1Cl | inactive: -7.43% |
| O=C(Nc1nc2c(F)cc(F)cc2s1)c1ccc2c(c1)OCCO2 | inactive: -10% |
| COc1cc(OC)c(N(C)C(=O)c2cn(C)c(=O)c3cc(OC)c(OC)cc23)cc1Cl | inactive: -12.5% |
| Cc1cc(S(=O)(=O)Nc2cc3c(cc2Cl)n(C)c(=O)c(=O)n3C)ccc1F | inactive: -20.4% |
| Cn1c(=O)c2cc(C(=O)N3CCN(c4cccc(C(F)(F)F)c4)CC3)sc2c2ccccc21 | inactive: -13.2% |
| O=C(Nc1cc(C(F)(F)F)ccc1Cl)c1cc(-c2cccs2)nc2ccccc12 | inactive: -4.44% |
| Cc1cc(C)c(S(=O)(=O)NCCc2sc(-c3cccnc3)nc2C)c(C)c1 | inactive: -7.68% |
| CCOc1ccccc1N(C)C(=O)c1cc(S(=O)(=O)NCCc2ccc(Cl)cc2)ccc1F | inactive: 4.2% |
| Cc1ccccc1CNC(=O)CCc1cn(Cc2ccccc2C)c2ccccc12 | inactive: -3.79% |
| CC(C)(C)c1ccc(C(=O)N2CCC(c3noc(-c4ccc(S(=O)(=O)N5CCCC5)cc4)n3)CC2)cc1 | inactive: -10.7% |
| CCN(CC)S(=O)(=O)c1ccc(NC(=O)c2ccc3c(=O)n4c(nc3c2)CCCCC4)cc1 | inactive: -9.09% |
| CCOc1ccc(NC(=O)c2ccc3c(c2)nnn3C2CCCC2)cc1 | inactive: -16.3% |
| Cc1nn(S(=O)(=O)c2ccc(F)cc2)c(C)c1S(=O)(=O)N1CCCCC1 | inactive: 6.55% |
| Cc1ccc2c(c1)N(C(=O)CCC(=O)Nc1ccc(F)cc1F)CC(C)O2 (configuration not stated) | inactive: -20.8% |
| CCN[C@H]1CN(CCCOC)S(=O)(=O)c2sc(S(N)(=O)=O)cc21 | inactive: -9.67% |
| COc1ccc(NC(=O)CSc2c3c(nc4ccccc24)CCC3)cc1Cl | inactive: 7.59% |
| CC(C)(C)C(=O)Nc1nnc2n1CCS2 | inactive: -15.6% |
| Cc1c(C(=O)Nc2cccc(C(F)(F)F)c2)oc2ccc(S(=O)(=O)N3CCC4(CC3)OCCO4)cc12 | inactive: -0.545% |

| Structure (SMILES) | activation |
| --- | --- |
| Cc1ccc(NC(=O)C2CCN(S(=O)(=O)c3cccc4nonc34)CC2)c(Cl)c1 | inactive: -4.2% |
| O=C(Nc1ccc(-c2nc3ccccc3s2)c(O)c1)c1ccc(Br)cc1 | inactive: -14.1% |
| CCOC(=O)c1c(C)[nH]c(C)c1S(=O)(=O)N1CCC(C(=O)NCc2cccc(C)c2)CC1 | inactive: 0.609% |
| CCc1ccccc1NC(=O)CSc1nc(C)c(C(=O)Nc2ccccc2)c(-c2ccc(Cl)cc2)c1C#N | inactive: -0.577% |
| Cc1cccc(NC(=O)CSc2nnc3[nH]c(=O)cc(C)n23)c1C | inactive: -19.3% |
| CCOC(=O)C1=C(CS(=O)(=O)c2ccc(C(C)(C)C)cc2)NC(=O)NC1c1cccc(OC)c1 (configuration not stated) | inactive: -10.5% |
| Cc1cc(=O)c2c(O)c3c(O)cc(=O)c4c3c3c(cc(O)c1c23)C(C)(C)C=4O | inactive: -13.4% [at 23.8 µM] |
| O=C(CCn1c(=O)c2cccn2c2cccnc21)Nc1ccccc1Br | inactive: 4.41% |
| O=C(CSCc1ccc(F)cc1)N1CCc2c([nH]c3ccccc23)C1c1ccc(F)cc1 (configuration not stated) | inactive: 2.18% |
| COc1ccc(N2CCN(C(=O)c3cnc(SC)nc3C)CC2)cc1 | inactive: -9.63% |
| COc1ccc(-c2cc3c(=O)n(CC(=O)Nc4ccc(Br)c(C)c4)ccn3n2)cc1OC | inactive: -15.5% |
| Cc1nn(CC(=O)NCc2cccc(Br)c2)c(=O)c2c1sc1ccccc12 | inactive: 3.64% |
| CN(C)c1ccc(CNC(=O)CN2C(=O)c3cccnc3Oc3ccc(Cl)cc32)cc1 | inactive: 4.09% |
| Cc1cc(C)c(S(=O)(=O)NCCc2cc3cc(C)c(C)cc3[nH]c2=O)c(C)c1 | inactive: -2.9% |
| O=S(=O)(NCCc1nnc2ccc(SCc3ccc(C(F)(F)F)cc3)nn12)c1ccccc1 | inactive: -8.75% |
| CC(C)C(=O)Nc1nnc(S(=O)(=O)N2CCCCCC2)s1 | inactive: -11.4% |
| COCCNC(=O)C1CCC(CNS(=O)(=O)c2ccc3c(c2)CC(C)N3C(C)=O)CC1 (configuration not stated) | inactive: 3.57% |
| O=C(C1COc2ccccc2O1)N1CCN(c2nc3c(F)cccc3s2)CC1 (configuration not stated) | inactive: -11.2% |
| COc1ccc(N(CC(=O)NCc2ccccc2Cl)S(=O)(=O)c2c(C)[nH]c(=O)[nH]c2=O)cc1 | inactive: -8.46% |
| NS(=O)(=O)c1cc(C2(O)NC(=O)c3ccccc32)ccc1Cl (configuration not stated) | inactive: -16.4% |
| COc1cccc(C(c2sc3nc(-c4ccco4)nn3c2O)N2CCOCC2)c1 (configuration not stated) | inactive: -8.83% |
| COc1ccc(NC(=O)CSc2nnc(-c3ccc(OC)cc3)s2)cc1 | inactive: -7% |
| Cc1ccc(Nc2nc3ccc(C)cc3nc2-n2nc(C)cc2C)c(C)c1 | inactive: -9.85% |
| Cc1c(C(=O)Nc2cccc(F)c2)oc2c1-c1nn(Cc3c(F)cccc3Cl)cc1CC2 | inactive: -1.68% |
| COc1cc(C(CC(=O)Nc2ccc(Br)cn2)N2Cc3ccccc3C2=O)cc(OC)c1OC (configuration not stated) | inactive: -21.2% |

| Structure (SMILES) | activation |
| --- | --- |
| COc1cccc(CNC(=O)c2sc3nc4n(c(=O)c3c2C)CCC4)c1 | inactive: -16.6% |
| O=C(NCCc1cccs1)c1ccc(Cn2c(SCc3ccccc3)nc3cccnc32)cc1 | inactive: -12.5% |
| Cc1ccc(N(Cc2cccs2)C(=O)Nc2cccc(Cl)c2)cc1 | inactive: -6.84% |
| Cc1c(Cl)cccc1NC(=O)NCc1c(-n2cccc2)sc2c1CCCC2 | inactive: -20% |
| Cc1ccc(CNC(=O)c2c(O)nc3ccccn3c2=O)cc1 | inactive: -7.1% |
| Cc1ccc(Cn2c(=O)n(CC3CCC(C(=O)N4CCC(C)CC4)CC3)c(=O)c3sccc32)cc1 (configuration not stated) | inactive: -20% |
| Cc1oc2c(c1C(=O)Nc1ccccc1Br)C1=NCCN1C=N2 | inactive: -1.72% |
| COc1ccc(N2CC3=C(C2=O)C(c2ccc(O)c(OC)c2)NC(=O)N3C)cc1 (configuration not stated) | inactive: -22.5% |
| CCOc1ccccc1NC(=O)Cn1cnc2c1c(=O)n(C)c(=O)n2C | inactive: -10.5% |
| CCOC(=O)c1ccccc1NC(=O)c1cc2c(s1)-c1c(C)cccc1OC2 | inactive: -22.4% |
| CCOc1ccccc1NC(=O)CSc1nc2c(oc3ccccc32)c(=O)n1C(C)C | inactive: -15.9% |
| CC(C)OCCCNc1sc(S(=O)(=O)c2ccccc2)nc1S(=O)(=O)c1ccc(Cl)cc1 | inactive: -9.13% |
| Cn1ncc2c(NCc3ccc(Cl)cc3)ncnc21 | inactive: -13.7% |
| COc1ccc(CCNC(=O)c2cnc3ccc(C)cn3c2=O)cc1OC | inactive: 8.9% |
| Cc1c(C(=O)Nc2ccc(F)cc2F)oc2ccc3c(c12)C(=O)CC(C)(C)O3 | inactive: 2.09% |
| COCCCNC(=O)c1cc(-c2ccc(OC)cc2)nc2n[nH]c(-c3ccc(Cl)cc3)c12 | inactive: 4.34% |
| Cc1ccc2oc(=O)c(-c3nc(-c4cccs4)no3)cc2c1 | inactive: -5.68% |
| CCN(Cc1ccccc1)C(=O)CN1C(=O)COc2ccc(S(=O)(=O)N3CCOCC3)cc21 | inactive: -12.7% |
| CCN(c1ccc(C)cc1C)S(=O)(=O)c1nnc(NC(=O)c2ccc(F)cc2)s1 | inactive: -6.83% |
| Cc1csc2nc(COC(=O)c3ccc(NC(=O)c4ccccc4Br)cc3)cc(=O)n12 | inactive: -38.2% |
| O=C(Nc1cccc(C(=O)OCc2cc(=O)n3ccsc3n2)c1)c1ccc(F)cc1 | inactive: -9.29% |
| COc1ccc(OC)c(NC(=O)CN(c2ccccc2OC)S(=O)(=O)c2ccc(C)cc2)c1 | inactive: -7.11% |
